{
  "source": "the supplement of paper PMC8728848",
  "binders": {"B1": {"name": "FliD (Clostridium difficile) (protein)", "chain": "MSSISPVRVTGLSGNFDMEGIIEASMIRDKEKVNKAKQDQQIVKWKQEIYRDIIKESKNLYDKYLNGDSPNSITNKKAYSATRITSSDESIIVAKGSAGAEKINYQFAVSQMAEPAKVTIKLNSSDPIVQQFPPNASGASSLNIGGVNIPISEQDTTSTIVSKINSLCADNDIRASYSEMTGELIISRKQTGSSSDIDLKVIGNDSLAGQIASDNGITFTTDASGTKSAVVYGKNLEADVTDDQGRVTHISKEQNSFKIDNIDYNVNSKGSAKLVSVTDTEEATKNMKAFVDDYNALMDKVYGLVTTKKSKDYPPLTDEQKDDMTTEEIEKWEKKAKEGILRNDDELRAFVEDIQSMFFGDADTIIALRKLGISEHENYNKKGQISFNADTFSKALIDDSDKVYKALAGYSSNYDDKGMFEKLKKIVFEYSGSSASKLTKKAGMENSSSASQNVYSKQIAEQERNISRLVEKMNDKEKRLYAKYSALESLLNKYSSQMNYFSQAQGN"}},
  "experiment_in_all_cases": "glycan array binding signal (z-score within array); higher = stronger binding",
  "conditions_in_all_cases": "glycan notation: IUPAC condensed, linker removed",
  "key": {"[1]": {"biological_target": "Gal(b1-4)GlcNAc(b1-2)[Gal(b1-4)GlcNAc(b1-4)]Man(a1-3)[Gal(b1-4)GlcNAc(b1-2)Man(a1-6)]Man(b1-4)GlcNAc(b1-4)GlcNAc", "how_it_was_run": "(§1)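 The binding signal is a Z-score computed within each array and averaged over linkers. Arrays of the same protein sequence at different concentrations or buffers were also averaged together. Data originate from 3228 arrays in the Consortium for Functional Glycomics database, kept only where the protein sequence was available.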"}, "[2]": {"biological_target": "Gal(b1-4)GlcNAc(b1-2)[Gal(b1-4)GlcNAc(b1-4)]Man(a1-3)[Gal(b1-4)GlcNAc(b1-2)[Gal(b1-4)GlcNAc(b1-6)]Man(a1-6)]Man(b1-4)GlcNAc(b1-4)GlcNAc", "how_it_was_run": "as §1"}, "[3]": {"biological_target": "Gal(b1-4)GlcNAc(b1-2)[Gal(b1-4)GlcNAc(b1-4)]Man(a1-3)[GlcNAc(b1-4)][Gal(b1-4)GlcNAc(b1-2)Man(a1-6)]Man(b1-4)GlcNAc(b1-4)GlcNAc", "how_it_was_run": "as §1"}, "[4]": {"biological_target": "Gal(b1-4)GlcNAc(b1-2)[Gal(b1-4)GlcNAc(b1-4)]Man(a1-3)[GlcNAc(b1-4)][Gal(b1-4)GlcNAc(b1-2)[Gal(b1-4)GlcNAc(b1-6)]Man(a1-6)]Man(b1-4)GlcNAc(b1-4)GlcNAc", "how_it_was_run": "as §1"}, "[5]": {"biological_target": "Gal(b1-4)GlcNAc(b1-2)[Gal(b1-4)GlcNAc(b1-6)]Man(a1-6)[Gal(b1-4)GlcNAc(b1-2)Man(a1-3)]Man(b1-4)GlcNAc(b1-4)GlcNAc", "how_it_was_run": "as §1"}, "[6]": {"biological_target": "Gal(b1-4)GlcNAc(b1-2)[Gal(b1-4)GlcNAc(b1-6)]Man(a1-6)[Gal(b1-4)GlcNAc(b1-2)Man(a1-3)]Man(b1-4)GlcNAc(b1-4)[Fuc(a1-6)]GlcNAc", "how_it_was_run": "as §1"}, "[7]": {"biological_target": "Gal(b1-4)GlcNAc(b1-2)[Gal(b1-4)GlcNAc(b1-6)]Man(a1-6)[GlcNAc(b1-4)][Gal(b1-4)GlcNAc(b1-2)Man(a1-3)]Man(b1-4)GlcNAc(b1-4)GlcNAc", "how_it_was_run": "as §1"}, "[8]": {"biological_target": "Gal(b1-4)GlcNAc(b1-2)[Gal(b1-4)GlcNAc(b1-6)]Man(a1-6)[GlcNAc(b1-4)][Gal(b1-4)GlcNAc(b1-2)[Gal(b1-4)GlcNAc(b1-4)]Man(a1-3)]Man(b1-4)GlcNAc(b1-4)[Fuc(a1-6)]GlcNAc", "how_it_was_run": "as §1"}, "[9]": {"biological_target": "Gal(b1-4)GlcNAc(b1-3)Gal(b1-3)GalNAc", "how_it_was_run": "as §1"}, "[10]": {"biological_target": "Gal(b1-4)GlcNAc(b1-3)Gal(b1-3)GlcNAc", "how_it_was_run": "as §1"}, "[11]": {"biological_target": "Gal(b1-4)GlcNAc(b1-3)Gal(b1-4)Glc", "how_it_was_run": "as §1"}, "[12]": {"biological_target": "Gal(b1-4)GlcNAc(b1-3)Gal(b1-4)GlcNAc", "how_it_was_run": "as §1"}, "[13]": {"biological_target": "Gal(b1-4)GlcNAc(b1-3)Gal(b1-4)GlcNAc(b1-2)Man(a1-3)[Gal(b1-4)GlcNAc(b1-3)Gal(b1-4)GlcNAc(b1-2)Man(a1-6)]Man(b1-4)GlcNAc(b1-4)GlcNAc", "how_it_was_run": "as §1"}, "[14]": {"biological_target": "Gal(b1-4)GlcNAc(b1-3)Gal(b1-4)GlcNAc(b1-2)Man(a1-3)[Gal(b1-4)GlcNAc(b1-3)Gal(b1-4)GlcNAc(b1-2)Man(a1-6)]Man(b1-4)GlcNAc(b1-4)[Fuc(a1-6)]GlcNAc", "how_it_was_run": "as §1"}, "[15]": {"biological_target": "Gal(b1-4)GlcNAc(b1-3)Gal(b1-4)GlcNAc(b1-2)[Gal(b1-4)GlcNAc(b1-3)Gal(b1-4)GlcNAc(b1-6)]Man(a1-6)[Gal(b1-4)GlcNAc(b1-3)Gal(b1-4)GlcNAc(b1-2)Man(a1-3)]Man(b1-4)GlcNAc(b1-4)GlcNAc", "how_it_was_run": "as §1"}, "[16]": {"biological_target": "Gal(b1-4)GlcNAc(b1-3)Gal(b1-4)GlcNAc(b1-2)[Gal(b1-4)GlcNAc(b1-3)Gal(b1-4)GlcNAc(b1-6)]Man(a1-6)[Gal(b1-4)GlcNAc(b1-3)Gal(b1-4)GlcNAc(b1-2)Man(a1-3)]Man(b1-4)GlcNAc(b1-4)[Fuc(a1-6)]GlcNAc", "how_it_was_run": "as §1"}, "[17]": {"biological_target": "Gal(b1-4)GlcNAc(b1-3)Gal(b1-4)GlcNAc(b1-3)Gal(b1-4)GlcNAc", "how_it_was_run": "as §1"}, "[18]": {"biological_target": "Gal(b1-4)GlcNAc(b1-3)Gal(b1-4)GlcNAc(b1-3)Gal(b1-4)GlcNAc(b1-2)Man(a1-3)[Gal(b1-4)GlcNAc(b1-3)Gal(b1-4)GlcNAc(b1-3)Gal(b1-4)GlcNAc(b1-2)Man(a1-6)]Man(b1-4)GlcNAc(b1-4)GlcNAc", "how_it_was_run": "as §1"}},
  "note": "The other results are listed elsewhere or left out.",
  "data": [
    {"binder": "B1", "values": [
      {"measurement": "glycan array binding signal (z-score)", "setting": "[1]", "value": -0.254},
      {"measurement": "glycan array binding signal (z-score)", "setting": "[2]", "value": -0.202},
      {"measurement": "glycan array binding signal (z-score)", "setting": "[3]", "value": -0.207},
      {"measurement": "glycan array binding signal (z-score)", "setting": "[4]", "value": -0.21},
      {"measurement": "glycan array binding signal (z-score)", "setting": "[5]", "value": -0.161},
      {"measurement": "glycan array binding signal (z-score)", "setting": "[6]", "value": -0.222},
      {"measurement": "glycan array binding signal (z-score)", "setting": "[7]", "value": -0.175},
      {"measurement": "glycan array binding signal (z-score)", "setting": "[8]", "value": -0.175},
      {"measurement": "glycan array binding signal (z-score)", "setting": "[9]", "value": -0.206},
      {"measurement": "glycan array binding signal (z-score)", "setting": "[10]", "value": -0.084},
      {"measurement": "glycan array binding signal (z-score)", "setting": "[11]", "value": -0.186},
      {"measurement": "glycan array binding signal (z-score)", "setting": "[12]", "value": -0.209},
      {"measurement": "glycan array binding signal (z-score)", "setting": "[13]", "value": -0.105},
      {"measurement": "glycan array binding signal (z-score)", "setting": "[14]", "value": 1.44},
      {"measurement": "glycan array binding signal (z-score)", "setting": "[15]", "value": 0.049},
      {"measurement": "glycan array binding signal (z-score)", "setting": "[16]", "value": -0.119},
      {"measurement": "glycan array binding signal (z-score)", "setting": "[17]", "value": -0.169},
      {"measurement": "glycan array binding signal (z-score)", "setting": "[18]", "value": -0.102}
    ]}
  ]
}
